Screen size: about 45,000 compounds; about 65 (0.1%) were called active. Calls follow the shape of the dose curve; as a rule, active = well fitted activation curve with a large enough effect; inconclusive = small, poorly fitted or top-dose-only effect; inactive = no such curve, though single readings can be large or run the other way. Some of the results follow.
The molecules below were run against Galactocerebrosidase (Homo sapiens) (UniProt P54803) (assay: A Novel Cell-Based Assay to Identify Small Molecules for B -Galactocerebrosidase). Conditions: 145M-Twi-hGALC-G270D cells (Twitcher mouse brain line with human GALC G270D), HMU-beta-Gal fluorescence, 48 h; series mostly up to 57.5 µM; activation: at the top concentration.
Sequence of UniProt P54803 (P54803 whole entry, looked up): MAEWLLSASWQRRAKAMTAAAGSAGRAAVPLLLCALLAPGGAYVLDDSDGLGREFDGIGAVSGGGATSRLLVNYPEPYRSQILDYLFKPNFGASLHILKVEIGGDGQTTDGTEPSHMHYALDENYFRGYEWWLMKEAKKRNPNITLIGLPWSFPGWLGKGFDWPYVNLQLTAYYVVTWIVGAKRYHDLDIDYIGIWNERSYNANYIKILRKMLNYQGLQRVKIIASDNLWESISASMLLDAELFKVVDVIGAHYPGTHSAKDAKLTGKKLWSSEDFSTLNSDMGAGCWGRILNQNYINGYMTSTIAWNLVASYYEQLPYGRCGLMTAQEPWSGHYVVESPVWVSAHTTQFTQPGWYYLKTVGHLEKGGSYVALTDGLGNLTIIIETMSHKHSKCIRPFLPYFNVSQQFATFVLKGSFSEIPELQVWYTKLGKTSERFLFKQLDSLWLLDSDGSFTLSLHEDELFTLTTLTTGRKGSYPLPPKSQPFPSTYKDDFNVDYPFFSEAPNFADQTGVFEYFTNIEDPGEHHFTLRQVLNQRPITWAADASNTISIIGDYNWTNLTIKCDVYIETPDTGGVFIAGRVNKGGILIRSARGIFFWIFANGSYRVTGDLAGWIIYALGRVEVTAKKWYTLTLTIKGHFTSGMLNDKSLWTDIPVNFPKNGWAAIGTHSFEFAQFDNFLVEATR
Method in brief: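 Mutant human GALC (G270D), stably expressed in a Twitcher mouse brain cell line lacking endogenous GALC, is measured in live-treated cells via 6-hexadecanoylamino-4-methylumbelliferyl-β-galactoside hydrolysis (0.1 mM final, pH 5.2) with fluorescent detection.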
Also: nearly all actives have a fitted effect of over 65% in size.
For activation in this document: 0% is about no effect.
Potency is read from the fitted curve at half-maximal effect.

Structure (SMILES) | activation | Potency
Cc1ccc2c(=O)cc(C(=O)Nc3c(C)cccc3C)oc2c1 | inactive: -13.2% | 
CCc1ccc(NC(=O)Cn2ncn3c(cc4ccccc43)c2=O)cc1 | inactive: -10.2% | 
CCCCN(Cc1cc2cc(C)ccc2[nH]c1=O)C(=O)c1cccc(Cl)c1 | inactive: -5.14% | 
Cc1cc2c(cc1S(=O)(=O)NCc1ccc(F)cc1)OCCN2C | inactive: -10.4% | 
COc1ccc(S(=O)(=O)c2c(Nc3cccc(Cl)c3)sc(C(=O)c3ccccc3)c2N)cc1 | inactive: -9.16% | 
COc1cccc2cc(-c3nc4sc5c(c4c(=O)[nH]3)CCC(C(C)(C)C)C5)c(=O)oc12 (stereo not drawn) | inactive: -5.27% | 
COc1ccc(/C=C/c2nc(C#N)c(N3CCCCC3)o2)cc1OC |  | active: 28.2 µM
COCCN(CCOC)S(=O)(=O)c1ccc(C(=O)Nc2sc3c(c2C(N)=O)CCCC3)cc1 | inactive: -14.1% | 
Cc1cccc(-c2nc(SCc3cc(=O)c4c(C)cc(C)cc4[nH]3)n[nH]2)c1 | inactive: -1.4% | 
CCCn1c(=N)c(C(=O)NCC2CCCO2)cc2c(=O)n3cc(C)ccc3nc21 (stereo not drawn) |  | active: 12.6 µM
Cc1ccc(Cl)cc1-n1ncc2c(NCCc3ccccc3)ncnc21 | inactive: -19.8% | 
COc1cccc(NC(=O)Cn2nc(N3CCN(c4ccccc4)CC3)ccc2=O)c1 | inactive: -10.7% | 
CCCNC(=O)c1ccc2c(c1)N=C(CCC)c1ccccc1S2 | inactive: -5.77% | 
Cc1cccc(CSc2cn(CC(=O)N3CCOCC3)c3ccccc23)c1 | inactive: -3.27% | 
O=C(Cn1ncc2c3ccccc3n(Cc3ccccc3)c2c1=O)NCCc1ccc(Cl)cc1 | inactive: -15.7% | 
COc1ccc(S(=O)(=O)N2CCC(c3nc4ccccc4s3)CC2)cc1OC | inactive: -23% | 
CCCCNc1nc2c(S(=O)(=O)c3ccc(Br)cc3)nnn2c2ccsc12 | inactive: -7.33% | 
Cc1ccc(NC(=O)Cn2c(=O)n(Cc3nc(-c4ccccc4)no3)c(=O)c3ccccc32)c(C)c1 | inactive: -10.1% | 
COc1ccc(C(=O)c2ccccc2O)c(O)c1 | inactive: -22.3% | 
Cc1ccc(OCC(=O)Nc2ccc(OCc3cc(=O)n4ccsc4n3)cc2)cc1C | inactive: -7.33% | 
CCC(=O)N1CCc2cc(S(=O)(=O)NC(Cc3ccccc3)C(=O)NCc3ccccc3)ccc21 (stereo not drawn) | inactive: -8.08% | 

Structure (SMILES) | activation | Potency
CCN(C(=O)CN1C(=O)c2ccccc2Sc2ccc(C(=O)OC)cc21)c1cccc(C)c1 | inactive: -7.53% | 
Cc1nn(C(C)C(=O)NCc2ccc(OC(C)C)cc2)c(=O)c2c1sc1ccccc12 (stereo not drawn) | inactive: -19.3% | 
Cc1ccc(C(=O)N(Cc2ccc(N(C)C)cc2)CC2CCCO2)cc1 (stereo not drawn) | inactive: -3.9% | 
COc1ccccc1NC(=O)c1c(-c2ccc(C)cc2)nnc2ccccc12 | inactive: -20.8% | 
CC(CCc1ccccc1)NC(=O)CSc1n[nH]c(-c2ccccc2)n1 (stereo not drawn) | inactive: -9.85% | 
CCCCNC(=O)CCC(=O)NNc1nc2ccccc2c2nc(C)nn12 | inactive: -11.8% | 
Cc1ccc2ccc3cc(C(=O)N4CCN(c5ccccc5F)CC4)nc3c2[nH]1 | inactive: -19.4% | 
Cc1ccc(Nc2c(-c3ccccn3)nc3ccc(Br)cn23)cc1 | inactive: -8.92% | 
O=C(NCc1cccs1)c1ccc2c(c1)sc1nc(-c3ccc(F)cc3)cn12 | inactive: -13.1% | 
O=C(Nc1cc(Cl)ccc1Cl)c1ccc2c(c1)N(Cc1cccc(Cl)c1)C(=O)c1ccccc1S2=O (stereo not drawn) | inactive: -22.6% | 
COc1ccc(N2CCN(C(=O)Nc3cn(CC(C)C)c(=O)c4ccccc34)CC2)cc1 | inactive: -26.9% | 
Cc1ccc2oc(C(=O)Nc3c(C(=O)Nc4cccc(Cl)c4)oc4ccccc34)cc(=O)c2c1 | inactive: -18.1% | 
Cc1nn(-c2ccccc2)c(OC(=O)c2ccccc2)c1S(=O)(=O)c1ccccc1 | inactive: -7.14% | 
COc1c(Cl)cc(C(=O)Nc2cc(-c3nc4ccccc4[nH]3)ccc2C)cc1Cl | inactive: -0.667% | 
CCOC(=O)CSc1nc2ccccc2c(=O)n1-c1ccc(C(=O)NCCOC)cc1 | inactive: -17.3% | 
Cc1ccc(N2C(=O)CS(=O)(=O)C23C(=O)Nc2ccccc23)cc1C (stereo not drawn) | inactive: -21.9% | 
O=C(Nc1ccccc1C(F)(F)F)N1CCOc2ccc(Cl)cc21 | inactive: -8.21% | 
Cc1ccccc1Cn1ccn(-c2ccc(F)c(F)c2)c(=O)c1=O | inactive: -11.8% | 
CN(Cc1nc(-c2ccc(Cl)cc2)no1)S(=O)(=O)c1ccccc1 | inactive: -10.9% | 
CC(C)c1ccc(C2CC(=O)Nc3cc4c(cc32)OCCO4)cc1 (stereo not drawn) | inactive: -34.6% | 
CCOC(=O)N1CCC(NC(=O)c2ccc3c(c2)N(Cc2ccccc2C)C(=O)c2ccccc2S3=O)CC1 (stereo not drawn) | inactive: -2.95% | 

Structure (SMILES) | activation | Potency
CCOc1ccccc1-c1noc(CSc2nnc(-c3ccccc3)n2-c2ccc(OC)cc2)n1 | inactive: -19.7% | 
CCCN1CCc2nc(N3CCN(C)CC3)ncc2C1 | inactive: -7.07% | 
Cc1ccc2nc(-c3ccccn3)c(Nc3ccccc3C)n2c1 | inactive: -16% | 
CCN(CC)c1nn2c(=O)c(C(=O)NCCc3cccc(C)c3)cnc2s1 | inactive: -11.6% | 
CCN1C(=O)C(O)(c2c[nH]c3ccccc23)c2cc(Br)ccc21 (stereo not drawn) | inactive: -9.71% | 
COc1ccc(S(=O)(=O)NCCc2csc3nc(-c4ccccc4)nn23)cc1OC | inactive: -1.1% | 
Fc1cccc(CSc2ccc(-c3cccs3)nn2)c1 | inactive: -18% | 
Cc1cccc(Cn2c(=O)n(-c3ccccc3C)c(=O)c3c2c2cc(C)ccc2n3C)c1 | inactive: -5.99% | 
CCc1cccc(C)c1NS(=O)(=O)c1ccc2c(c1)CC(C)N2C(=O)C1CC1 (stereo not drawn) | inactive: -9.49% | 
COc1ccc(-c2noc(CSc3nc4ccccc4[nH]3)n2)cc1OC | inactive: -15.7% | 
CC(C)Cc1ccc(C(C)C(=O)O)cc1 (stereo not drawn) | inactive: -6.3% | 
CCC(=O)Nc1nnc(S(=O)(=O)N2c3ccccc3CC2C)s1 (stereo not drawn) | inactive: -2.1% | 
Cc1csc2nc(COC(=O)c3ccc(NC(=O)C(C)Oc4ccccc4)cc3)cc(=O)n12 (stereo not drawn) | inactive: -8.27% | 
Cc1ccc(CNc2nc3ccccc3n3cnnc23)cc1 | inactive: -0.629% | 
CCC(=O)N1c2ccccc2CC1C(=O)NCc1cc(Br)ccc1OC (stereo not drawn) | inactive: -16.1% | 
Cc1ccc2oc3c(c(=O)c2c1)C(c1ccc(O)cc1)N(c1nc(C)c(C)s1)C3=O (stereo not drawn) | inactive: -12.4% | 
O=C(NCc1cccc(F)c1)c1ccccc1NC(=O)c1nsc2ccccc12 | inactive: 2.49% | 
Cc1cccc(NC(=O)C2CCCN2S(=O)(=O)c2ccc3c(c2)n(C)c(=O)c(=O)n3C)c1 (stereo not drawn) | inactive: 10.6% | 
Cc1cc(C)c2oc(-c3cccc(NC(=O)c4ccc(-c5cccc([N+](=O)[O-])c5)o4)c3)nc2c1 | inactive: 0.308% | 
COc1ccc(CN2CCN(C(c3ccc(F)cc3)c3ccc(F)cc3)CC2)c(OC)c1OC | inactive: -13.6% | 
COc1ccc(NC(=O)c2cnc(N3CCCC3)nc2)cc1OC | inactive: -2.16% | 
